Source: PubChem BioAssay AID686978 (National Center for Advancing Translational Sciences (NCATS), 2013)
Values joined by “and” are separate entries in the source; they are usually repeats but may differ in a detail not shown here. Equal values may be shown once. The whole screen tested about 420,000 compounds, of which about 64,000 (15%) were called active. The inconclusive results got no clear call from the source; some entries with a clear call stand among them for comparison. The call rests on the fitted dose curve; in most records, active means well fitted inhibition curve with a large enough effect; inconclusive means small, poorly fitted or top-dose-only effect; inactive means flat fitted curve, though single readings scatter. A potency beside an inconclusive call is a rough fit, not a confirmed value. Where a structure was tested more than once in an assay, its records may differ in their call.

assay: qHTS for Inhibitors of human tyrosyl-DNA phosphodiesterase 1 (TDP1): qHTS in cells in absence of CPT; settings: DT40 Tdp1-/- hTDP1 cells, no CPT, ATP luminescence, 48 h; series mostly up to 46.2 µM; further: nearly all actives have a fitted effect of over 55% in size
In short: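 Growth kinetics read by CellTiter-Glo luminescence after ≥48 hr at 37 °C. Cells: DT40 Tdp1-/- stably carrying human TDP1, 400 per well, compound exposure in the absence of CPT (DMSO vehicle).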
Potency means the concentration at half of the fitted maximal effect; tags describe the fitted curve by direction and shape.

Row | Structure (SMILES) | Potency
1 | O=C(NCc1ccccc1)c1cccn(Cc2cccc(Cl)c2)c1=O | inconclusive: 29.1 µM [inhibitor, single point]
2 | CC(C)(c1ccc(OC[C@@H]2CO2)cc1)c1ccc(OC[C@H]2CO2)cc1 | active: 11.9 µM
3 | C[C@]12CC[C@H](OC(=O)CCC(=O)O)CC1=CCC1C2CC[C@@]2(C)C1CC[C@@H]2OC(=O)CCC(=O)O (some centres undefined) | inactive
4 | CC(C)NCC(O)c1ccccc1Cl (centres undefined) | inactive
5 | COc1ccc(C(C)=O)cc1CC(C(=O)c1ccccc1)N(C)C (centres undefined) | inconclusive: 18.4 µM [inhibitor, partial curve]
6 | O=C1NCN(c2ccccc2)C12CCN(C(c1ccnc3ccccc13)c1nnnn1C1CCCC1)CC2 (centres undefined) | inconclusive: 16.4 µM [inhibitor, single point]
7 | COc1cccc2c1cc([N+](=O)[O-])c1c(C(=O)O)cc3c(c12)OCO3 | inactive and active: 11.6 µM
8 | CCOc1ccccc1CN1CCCC(C(=O)c2cc(F)ccc2F)C1 (centres undefined) | inconclusive: 7.31 µM [inhibitor, single point]
9 | COC1C(O)C(C)OC(OC2C(Oc3cccc4c(O)c5c(=O)oc6ccc(C)c7c(=O)oc(c34)c5c67)OC(C)C(O)C2O)C1O (centres undefined) | active: 0.82 µM
10 | Cc1cccc(N2CCN(CCc3ccccc3)CC2)c1C | inconclusive: 20.6 µM [inhibitor, single point]
11 | N#Cc1ccc(C(=O)N2CCN(c3nc4ccc(F)cc4s3)CC2)cc1 | active: 2.31 µM
12 | CN(C)C(=O)Oc1ccc2c(=O)c(Oc3ccccc3Br)coc2c1 | inactive
13 | COc1ccc(NC(=O)c2ccco2)cc1NC(=O)COc1cc(C)cc(C)c1 | active: 5.8 µM
14 | O[C@@H]1CCCN2CCc3c([nH]c4ccccc34)[C@H]12 | inconclusive: 25.9 µM [inhibitor, single point]
15 | S=C(NCCc1ccccc1)NCCc1cnc[nH]1 | inactive
16 | O=C(Nc1ccccc1-c1ccc(Cl)cc1)c1cccnc1Cl | inconclusive: 30.6 µM [inhibitor, single point]
17 | Brc1ccccc1CNCCc1ccc2c(c1)OCO2 | inconclusive: 25.9 µM [inhibitor, single point]
18 | COC(=O)C1=C(N)Oc2c(c(=O)oc3ccccc23)[C@]12C(=O)N(C)c1ccccc12 | inconclusive: 14.6 µM [inhibitor, partial curve, poor fit]
19 | CC(=O)NCCc1c[nH]c2ccccc12 | inactive and inconclusive: 1.68 µM [inhibitor, full curve, poor fit]
20 | O=P(Oc1ccccc1)(Oc1ccccc1)N1CCN(c2ccc(F)cc2)CC1 | inconclusive: 23.1 µM [inhibitor, single point]
21 | CCN(CCNc1ccc([N+](=O)[O-])c2cccnc12)S(=O)(=O)c1ccc(Cl)cc1 | inconclusive: 18.4 µM [inhibitor, single point]
22 | CCOP(=O)(OCC)C(Nc1cccc(C(F)(F)F)c1)c1ccc(C)cc1 (centres undefined) | active: 18.4 µM
23 | O=C(c1csnn1)N1CCC[C@@]2(CCN(Cc3ccncc3)C2)C1 | inactive

Row | Structure (SMILES) | Potency
24 | CCc1ccc(NC(=O)c2cccn(Cc3cccc([N+](=O)[O-])c3)c2=O)cc1 | active: 20.6 µM
25 | C[C@H](CO)N1C[C@H](C)[C@@H](CN(C)Cc2ccc(-c3ccccc3)cc2)Oc2c(NC(=O)c3ccncc3)cccc2C1=O | active: 23.1 µM
26 | CCOc1ccc2nc(N3CCC(C(=O)Nc4ccc(Br)cc4F)CC3)sc2c1 | active: 13 µM
27 | COc1ccccc1/C=C1/C(=N/O)C2CCN1CC2 | inactive
28 | COc1ccc(NS(=O)(=O)c2ccc3c(c2)CCCN3C(=O)C2CCC2)cc1OC | active: 3.66 µM
29 | Cc1cc(OCc2nn[nH]n2)c2c3c(c(=O)oc2c1)CCCC3 | inactive
30 | CC1(C)C(=O)[C@@H]2OC2[C@@]2(C)C1CC(O)[C@]1(C)C2CC[C@@]2(C)C(c3ccoc3)OC(=O)C3OC312 (some centres undefined) | inconclusive: 18.4 µM [inhibitor, single point]
31 | O=C(CC1CCCCC1)c1c(O)c2ccccc2oc1=O | inconclusive: 23.1 µM [inhibitor, single point]
32 | CC(=O)OC1CC2(O)C3CCC4CC(O)CCC4(C)C3CCC2(C)C1C1=CC(=O)OC1 (centres undefined) | active: 8.2 µM
33 | O=C(Cn1c2c(c(-c3ccccc3Cl)cc1=O)CCC2)N1CCC2(CC1)OCCO2 | inconclusive: 11.6 µM [inhibitor, partial curve]
34 | CC(=O)Nc1ccccc1C(=O)OCc1ccccc1F | inactive
35 | O=c1c(O)c(-c2ccc(O)c(O)c2)oc2c(O)c(O)cc(O)c12 | inconclusive: 29.1 µM [inhibitor, single point]
36 | O=c1[nH]c2ccccc2n1C1CCN(C(c2cc3ccccc3o2)c2nnnn2-c2ccc3c(c2)OCCO3)CC1 (centres undefined) | active: 14.6 µM
37 | COc1ccc(C(=O)OC2CC[C@@]3(C)C4CCC5[C@]6(O)CC(O)[C@@]7(O)C(CN8CC(C)CCC8[C@@]7(C)O)[C@]6(O)C[C@@]53O[C@]24O)cc1OC (some centres undefined) | inactive
38 | CC(C)c1ccccc1NC1=NCCCS1 | inactive
39 | O=C(COC(=O)Cc1ccccc1)NNC(=O)c1ccc([N+](=O)[O-])cc1 | inactive
40 | CC(C)CCOP(=O)(c1ccc(N(C)C)cc1)C(O)c1c(Cl)cccc1Cl (centres undefined) | active: 16.4 µM
41 | CCCCCn1c(=O)c(C(=O)Nc2ccccc2)c(O)c2ccccc21 | active: 5.17 µM
42 | O=C(CN1CCN(S(=O)(=O)c2ccc3ccccc3c2)CC1)NC(=O)NC1CCCCC1 | inconclusive: 18.4 µM [inhibitor, single point]
43 | O=[N+]([O-])c1ccccc1CNCCc1c[nH]c2ccccc12 | inactive
44 | CC(=O)c1ccc(OCC(=O)N2CCCC(N3CCN(c4ccccc4C)CC3)C2)cc1 (centres undefined) | inconclusive: 18.4 µM [inhibitor, single point]
45 | CSCc1nnc2n1-c1ccc(Cl)cc1C(c1ccccc1)=NC2 | inconclusive: 25.9 µM [inhibitor, single point]
46 | COc1nnc(-c2ccc(N3CCCCC3)c(NC(=O)c3ccccc3)c2)c2ccccc12 | active: 14.6 µM

Row | Structure (SMILES) | Potency
47 | Cc1ccc(S(=O)(=O)N2Cc3cc(N4CCOCC4)ccc3-n3nncc3C2)cc1 | inconclusive: 18.4 µM [inhibitor, single point]
48 | Cn1c(=O)cc(OCC(=O)N2CCN(Cc3ccc4c(c3)OCO4)CC2)c2ccccc21 | inconclusive: 29.1 µM [inhibitor, single point]
49 | CCOC(=O)[C@]12Cc3c(cc(OC)c(OC)c3OC)[C@H]1N(C)C(=O)c1cc(OC)ccc12 | active: 9.2 µM
50 | CC(=O)c1cccc(-c2ccnc3c2CC(C(=O)NCCc2ccccc2)O3)c1 (centres undefined) | active: 3.66 µM
51 | CCCCc1nc2ccccc2c(=O)n1-c1ccccc1O | inconclusive: 29.1 µM [inhibitor, partial curve, poor fit]
52 | Cc1nc2c(c(=O)[nH]1)C(c1ccccc1Cl)c1c(c3ccccc3oc1=O)O2 (centres undefined) | inconclusive: 25.9 µM [inhibitor, single point]
53 | Cc1cccc(-n2c(=O)c3c(c4cc(C)ccc4n3C)n(CC(=O)Nc3ccc(C)c(C)c3)c2=O)c1 | inconclusive: 0.411 µM [inhibitor, single point]
54 | O=c1[nH]c(O)c(N=Nc2cc(C(F)(F)F)ccc2Cl)c(=O)[nH]1 | inconclusive: 29.1 µM [inhibitor, single point]
55 | Cc1cccc(-n2c(/C=C/c3ccccc3O)nc3ccccc3c2=O)c1 | inconclusive: 18.4 µM [inhibitor, single point]
56 | COc1cc2c(cc1O)-c1c(O)c(OC)cc3c1[C@H](C2)N(C)CC3 | inconclusive: 29.9 µM [inhibitor, partial curve, poor fit]
57 | C=CCn1c(O)c(C(CC)=Nc2ccc(N(C)C)cc2)c(=O)[nH]c1=O | inconclusive: 23.1 µM [inhibitor, single point]
58 | CCCCCn1c(SCCCC)nc2c1c(=O)[nH]c(=O)n2C | inconclusive: 23.1 µM [inhibitor, single point]
59 | CCOC(=O)[C@]12Cc3cc(N(C)C)ccc3[C@H]1N(Cc1ccccc1)C(=O)c1ccccc12 | active: 12.6 µM and active: 6.51 µM
60 | C[C@H](CO)N1C[C@H](C)[C@H](CN(C)C(=O)c2ccncc2)OCc2ccccc2-c2c(n(C)c3ccccc23)C1=O | inconclusive: 29.1 µM [inhibitor, single point]
61 | COc1ccc(NC(=O)C(=O)NNC(=O)C(C)Oc2ccc(Cl)cc2Cl)cc1 (centres undefined) | inconclusive: 20.6 µM [inhibitor, single point]
62 | CCOC(=O)c1ccc(-[n+]2c(-c3ccccc3)cc(-c3ccccc3)cc2-c2ccccc2)cc1 | active: 0.731 µM
63 | CCN1C(=O)c2ccccc2Sc2ccc(NC(=O)Cc3ccc(OC)c(OC)c3)cc21 | inconclusive: 29.1 µM [inhibitor, single point]
64 | CN1CCc2cc3c(cc2C1O)OCO3 (centres undefined) | inactive
65 | CC(=O)OC1C2CCC1C(N1CCCCC1)CC2 (centres undefined) | inactive
66 | CSc1ccc(C(=O)C2CCCN(Cc3ccn[nH]3)C2)cc1 (centres undefined) | inconclusive: 23.1 µM [inhibitor, single point]
67 | COC1=CC23CCCN2CCc2cc4c(cc2C3C1O)OCO4 (centres undefined) | inconclusive: 16.4 µM [inhibitor, single point]
68 | CC12CC[C@H]3[C@@H](CCC4(O)C[C@H](O)CCC34/C=N/NC(=O)c3ccccc3F)C1(O)CCC2C1=CC(=O)OC1 (some centres undefined) | inactive
69 | CC(=O)N1N=C2C3CCN(CC3)C2C1c1ccccc1 (centres undefined) | inactive
